# The source gives no read counts; variants with many changes may rest on few reads.
# B1: LINE1-full (parent)
# chain: UACGUAGGUGGUUUUCCCCUGAUAGUGCUAAGGGGGCCUGGAAGUUUGGACUGGGCAGAGCUCAACACAGCGUGGCAAAGUGGCUGUGGCUAGACUGCCUCUCUGGAUUCCUCGUCACUCAGCAGGGCAUCUCUGAGAGAAAUGCC
# Variants of: B1
# Experiment: self-cleavage, relative activity (ratio to wild type); higher = more cleavage; in vitro, sequencing; the parent is a self-cleaving ribozyme
row,Variant,self-cleavage
1,UACGUAGGUGGUUUUCCCCUGAUGGUGCUAAGGGGGCCUGGAAGUUUGGACCGGGCAGAGCUCAACACAGCGUGGCAAAGUGGCCGUGGCUAGACUGCCUCUCUGGAUUCCUCGUCACUCAGCAGGGCAUCUCUGAGAGAAAUGCC,0
2,UACGUAGGUGGUUUUCCCCUGAUGGCGCUAAGGGGGCCUGGAAGUUUGGACUGGGCAGAGCUCAACACAGCGUGGCUAAGUGGCUGUGGCUAGACUGCCUCUCUGGACUCCUCGUCACUCAGCAGGGCAUCUCUGAGAGAAAUGCC,0.3
3,UACGUAGGUGGUUUUCCCCUGAUGGUGCUAAGGGGGCCUGGAAGUUCGGACUGGGCAGAGCCCAACACAGCGUGGCAAAGUGGCUGUGGCCAGACUGCCUCUCUGGAUUCCUCGUCACUCAGCAGGGCAUCUCUGAGAGAAAUGCC,0
4,UACGUAGGUGGUUUUCCCCUGAUGGUGCUAAGGGGGCCUGGAAGUUUGGACUGGGCAGAGCUCAACACAGCGAGGCAAAGUGGCCGUGGGUAGACUGCCUCUCUGGAUUCCUCGUCACUCAGCAGGGCACCUCUGAGAGAAAUGCC,0.1
5,UACGUAGGUGGUUUUCCCCUGAUGGUGCUAAGGGGGCCUGGAAGUUUGGACUGGGCAGAGCUCAACACAGCGUGGCAAAGUGGCUGUGGCUAGACUGCCUCUCUUGAUUCCUCGUCACUCAGCAGGGCAUCUCUGGGAGAAAUGCC,1.42
6,UACGUAGGUGGUUUUCCCCUGAUGGUGCUAAGGGGACCUGAAAGUUUGGACUGGGCAGAGCUCGACACAGCGUGGCAGAGUGGCUGUGGCUAGACUGCCCCUCUGGAUUCCUCGCCACUCAGCAGGGCAUCUCUGAGAGAAAUGCC,0.23
7,UACGUAGGUGGUUUUCCCCUGAUGGUGCUAAGGGGGCCUGGAAGUCUGGACUGGGCAGAGCUCAACACAGCGUGGCAAAGUGGCUGUGGCUAGACUGCCUCUCUGGAUUCCUCGUCACUCAGCAGGGCAUCCCUGAGAGAAAUGCC,2.94
8,UACGUAGGUGGUUUUCCCCUGAUGGUGCUAAGGGGACCUGGAAGUUUGGACCGGGCAGAGCUCAACACAGCGUGGCAAAGUGGCUGUGGCUAGACUGCCUCUCUGGAUUCCUCGUCACUCAGCAGGGCAUCUCUGAGAGAAAUGCC,1.03
9,UACGUAGGUGGUUUUCCCCUGAUUGUGCUAAGGGGGCCUGGAAGUUUGGACUGGGCAGAGCUCAACACAGCGUGGCUAAGUGGCUGUGGCUAGACUGCCUCUCUGGAUUCCUCGACACUCAGCAGGGCAUCUCUGAGAGAAAUGCC,0.77
10,UACGUAGGUGGUUUUCCCCUGAUUGUGCUAAGGGGGCCUGGAAGUUUGGACUGGGCGGAGCUCAACACAGCGUGGCAAAGUGGCUGUGGCUAGACUGCCUCCCUGGAUUCCUCGUCACUCAGCAGGGCAUCUCUGAGAGAAAUGCC,1.34
11,UACGUAGGUGGUUUUCCCCUGAUGGUGCUAAGGGGGCCUGGAAGUUUGGACUGGGCAGAGCACAACACAGCGUGGCAAAGUGGCUGUGGCUAGACAGCCUCUCUGGAUUCCUCGUCACUCAGCAGGGCAUCUCUGAGAGAAAUGCC,0.13
12,UACGUAGGUGGUUUUCCCCUGAUGGUGCUAAGGGGGCCUGGAAGUUUGGACAGGGCAGCGCUCAACACAGCGUGGCAAAGUGGCUGUGGCUAGACUGCCUCUCUGGAUUCCUCGUCACUCAGCAGGGCAUCUCUGAGAGAAAUGCC,2.51
13,UACGUAGGUGGUUUUCCCCUGAUGGUGCUAAGGGGGCCUGGAAGUUUGGACUUGGCAGAGCUCAACACAGCGUGGCAAAGUGGCUGUGGCUAGACUGCCUCUCUGGAUUCCUCGUCGCUCAGCAGGGCAUCUCUGAGAGAAAUGCC,1.15
14,UACGUAGGUGGUUUUCCCCUGAUUGUGCUAAGGGGGCCUGGAAGUUUGGACUGGGCAGAGCUCAACACGGCGUGGCAAAGUGGCUGUGGCCAGACUGCCUCUCUGGAUUCUUCGUCACUCAGCAGGGCAUCUCUGGGAGAAAUGCC,0
15,UACGUAGGUGGUUUUCCCCUGAUGGUGCUAAGGGGGCCUGGAAGUUCGGACUGGGCAGAGCUCAACACAGCGUGGCGAAGUGGCUGUGGCUAGACUGCCUCUCUGGAUUCCUCGUCACUCAGCAGGGCAUCUCUGAGAGAAAUGCC,2.22
16,UACGUAGGUGGUUUUCCCCUGAUGGUGCUAAGGGGGCCUGGAAGUUUGGACUGGGCAGAGCUCAACACAGCGUGGCAAAGUGGCUGUGGCUAGACUGCCUCUCUGGAUUCCUCGCCACUCAGCAGGGCAUCCCUGAGAGAAAUGCC,1.41
17,UACGUAGGUGGUUUUCCCCUGAUUGUGCUAAGGGGGCCUGGAAGUUUGGACUGGGCAGUGCACAACACAGCGUGGCAAAGUGGCUGUGGCUAGACUGCCUCUCUGGAUUCCUCGUCACUCAGCAGGGCAUCUCUGGGAGAAACGCC,0.14
18,UACGUAGGUGGUUUUCCCCUGAUGGUGCUAAGGGGGCCUGGAAGUUUGGACUGGGCAGAGCUCAACACAGCGUGGCAAAGUGGCAGUGGCUAGACUUCCUCUCCGGAUUCCUCUACACUCAGCAGGGCAUCUCUGAGAGAAAUGCC,0.05
19,UACGUAGGUGGUUUUCCCCUGAUGGUGCUAAGGGGGCCUGGAAGUCUGGACUGGGCAGAGCUCGACACAGCGUGGCGAAGUGGCUGUGGCUAGACUGCCUCUCUGGAUUCCUCGUCACUCAGCAGGGCAUCUCUGAGAGAAAUGCC,0
20,UACGUAGGUGGUUUUCCCCUGAUGGUGCUAAGGGGGCCUGGAAGUUUGGACAGGGCAGUGCUCAACACAGAGUGGCAAAGUGGCUGUGGCUAGACUGCCUCUCUGGAUUCCUCGACACUCAGCAGGGCAUCUCUGAGAGAAAUGCC,0.28

row,Variant,self-cleavage
1,UACGUAGGUGGUUUUCCCCUGAUGGUGCGAAGGGGGCUUGGAAGUUUGGACUGGGCAUAGCUCAACACAGCGUGGCAAAGUGGCUGUGGCUAGACGGCCUCUCUGGAUUCCUCGUCACUCAGCAGGGCAUCUCUGAGAGAAAUGCC,0
2,UACGUAGGUGGUUUUCCCCUGAUUGUGCUAAGGGGGCCUGGAAGUUUGGACUGGGCAGAGCUCAACACAGCGUGGCAAAGUGGCUGUGGCUAGACUGCCUCUCUGGAUUCCUCGUCACUCAGCGGGGCAUCUCUGAGAGAGAUGCC,1.75
3,UACGUAGGUGGUUUUCCCCUGAUGGUGCCAAGGGGGCCUGGAAGUUUGGACUGGGCAGAGCCCAACACCGCGUGGCAAAGUGGCUGUGGCUAGACUGCCUCUCUGGAUUCCUCGUCACUCAGCAGGGCAUCUCUGAGAGAAAUGCC,0
4,UACGUAGGUGGUUUUCCCCUGAUUGUGCUAAGGGGGCCUGGAAGUUUGGACUGGGCAGAGCUCAACACAGCGUGGCAAUGUGGCUGUGGCUAGACUGCCUCUCUGGGUUCCUCGUCACUCAGCAGGGCAUCUCUGAGAGAAAUGCC,2.76
5,UACGUAGGUGGUUUUCCCCUGAUGGUGCUAAGGGGGCCCGGAAGUUUGGACAGGGCAGAGCUCAACACAGCGUGGCAAAGUGGCUGUGGCUAGACUGCCUCUCUGGAUUCCUCGUCACUCAGCAGGGCAUCUCUGAGAGACAUGCC,1.05
6,UACGUAGGUGGUUUUCCCCUGAUGGCGCUAAGGGGGCCUGGAAGUUUGGACUGGGCAGAGCUCAACACAGCGUGGCAAAGUGGCUGUGGCUAGACUGCCUCUCUGGAUUCCUCGUCACUCAGCAGGGCAUCUCUGAGAGGAGUGCC,0.6
7,UACGUAGGUGGUUUUCCCCUGAUGGUGCUAAGGGGUCCUGGGAGUUUGGACUGGGCGGAGCUCAACACAGCGUGGCAAAGUGGCUGUGGCUAGACUGCCACUCUGGAUUCCUCGUCACUCAGCAGGGCAUCUCUGAGAGAAAUGCC,0.38
8,UACGUAGGUGGUUUUCCCCUGAUGGUGCUAAGGGGGCCUGGAAGUCUGGACUGGGCAGAGCUCAACACAGCGUGGCAAAGUGGCUGUGGCUAGACUGCCUCUCUGGAUUCCUCGUCACUCAGCAGGGCAUCUCUGAGGGAAAUGCC,0.84
9,UACGUAGGUGGUUUUCCCCUGAUGGUGCUAAGGGGGCCUGGAAGGUUGGACUGGGCAGAGCUCAACACAGCGUGGCAAAGUGGCUGUGGCUAGACUGCCUCUCUGGAUUCCUCGUCACUCUGCAGGGCAUCUCUGAGAGAAAUGCC,0.68
10,UACGUAGGUGGUUUUCCCCUGAUGGUGCUAAGGGGGCCUGGAAGUACGGACUGGGCAGAGCUCAACACAGCGUGGCAAAGUGGCUGUGGCUAGUCUGCCUCUCUGGAUUCCUCGCCACUCAGCAGGGCAUCUCUGAGAGAAAUGCC,0
11,UACGUAGGUGGUUUUCCCCUGAUGGGGCUAAGGGGGCCUGGAAGUUUGGACUGGGCAGAGCUCAACACAGCGUGGCAAAGUGGCUGUGGCUGGACUGCCUCUCUGGAUUCCUCGUCACUCAGCAGGGCAUCUCUGAGAGAAAUGCC,0.66
12,UACGUAGGUGGUUUUCCCCUGAUGGUGCUAAGGGGGCCCGGAAGUUUGGACUGGGCAGAGCUCAACACAGCGUGGCAAAGUGGCUGUGGCUAGACUGCCUCUCUGGAUUCCUCGUCUCUCAGCAGGGCAUCUCUGAGAGAAAUGCC,1.52
13,UACGUAGGUGGUUUUCCCCUGAUGGUGCUAAGGGGGCCUGGAAGUUUGGACUGGGCAGAGCUCAACACAGCGUGGCAAAGUGGCUGGGGCUAGAUUGCCUCUCUGGAUUCCUCGUCACUCAGCAGGGCAUCUCUGAGUGAAAUGCC,0.18
14,UACGUAGGUGGUUUUCCCCUGAUGGUGCUAAGGGGGCCUGGAAGUUUGGACUGGGCAGAGCUCAACACAGCGUGGCAAAGUGGCUGUGGCUAGACUGCCUCUCUGGAUUCCUCGUCACUCAGCAGGGCAUCUCCGAGAGAGAUGCC,2.63
15,UACGUAGGUGGUUUUCCCCUGAUUGUGCUAAGGGGGCCUGGAAGUUUGGACUGGGCAGAGCUCAACACAGCGUGGCAAAGUGGCUGUGGCUAGACUGCCUCUCUGGAUUCCUCGUCACUCAGCAGGGCAUCUCUGAGGGUAAUGCC,0.44
16,UACGUAGGUGGUUUUCCCCUGAUGGUGCUAAGGGGGCCUGGAAGUUUGGACUGGGCAGAGCUCAACACAGCGUGGCAAAGUGGCCGUGGCUAGGCUGCCUCUCCGGAUUCCUCGUCACUCAGCAGGGUAUCUCUGAGAGAAAUGAC,0
17,UACGUAGGUGGUUUUCCCCUGAUUGUGCUAAGGGGGCCUGGAAGUUUGGACUGGGCAGAGCUCAACACAGCGUGGCAGAGUGGCUGUGGCUAGACUGCCUCUCUGGAUUCCUCGCCACUCAGCAGGGCAUCUCUGAGAGAAAUGCC,0.96
18,UACGUAGGUGGUUUUCCCCUGAUGGUGCUAAGGGGGCCUGGAAGCUUGGACUGGGCAGAGCUCAACACAGCGUGGCAAAGUGGCUGUGGCUAGACUGCCUCUCUGGAUUCCUCGUCACUCAGCAGGGCAUCUCAGAGAGAAAUGCC,1.53
19,UACGUAGGUGGUUUUCCCCUGAUGGUGCUAAGGGGGCCUGGAAGUUUGGACCGGACAGAGCUCAACACAGCGUGGCAAAGUGGCUGUGGCUAGACUGCCUCUCUGGAUUCCUCGUCACUCAGCAGGGCAUCUCUGAGAGAAAUGCC,0.16

# — the RNAGym collection of RNA variant scans (doi:10.7554/elife.90254)
